Measurements reported in the supplement of paper PMC3334620.
The full ranking holds about 33,000 sequences; the median of “E-score (-0.5 to 0.5)” is about -0.041, and the highest 2% start at about 0.37. The list shows a part of the results.

Molecular target: T1, Ecm22 (UniProt Q05958)
T1 sequence: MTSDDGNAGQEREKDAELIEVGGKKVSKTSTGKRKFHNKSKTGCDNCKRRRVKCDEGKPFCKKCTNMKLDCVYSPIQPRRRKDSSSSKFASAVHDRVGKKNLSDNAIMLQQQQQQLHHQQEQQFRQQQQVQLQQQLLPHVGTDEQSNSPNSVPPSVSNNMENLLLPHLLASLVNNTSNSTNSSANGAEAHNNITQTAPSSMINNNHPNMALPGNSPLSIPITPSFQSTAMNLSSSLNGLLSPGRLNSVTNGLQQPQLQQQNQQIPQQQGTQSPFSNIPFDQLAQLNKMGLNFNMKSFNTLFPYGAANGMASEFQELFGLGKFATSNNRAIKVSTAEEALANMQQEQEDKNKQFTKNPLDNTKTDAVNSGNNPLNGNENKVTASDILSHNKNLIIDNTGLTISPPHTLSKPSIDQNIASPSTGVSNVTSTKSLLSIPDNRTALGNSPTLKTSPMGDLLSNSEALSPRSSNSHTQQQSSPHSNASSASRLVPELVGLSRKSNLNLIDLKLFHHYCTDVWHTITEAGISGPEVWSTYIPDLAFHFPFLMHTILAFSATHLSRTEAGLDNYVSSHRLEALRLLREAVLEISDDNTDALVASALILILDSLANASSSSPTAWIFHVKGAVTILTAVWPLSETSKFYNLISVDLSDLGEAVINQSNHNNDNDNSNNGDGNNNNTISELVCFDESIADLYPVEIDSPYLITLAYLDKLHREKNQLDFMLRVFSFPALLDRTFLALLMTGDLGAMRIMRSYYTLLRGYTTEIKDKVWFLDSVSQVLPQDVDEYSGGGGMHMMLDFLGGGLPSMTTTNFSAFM
Assay: PBM E-score (8-mer binding enrichment) (E-score (-0.5 to 0.5)); higher = stronger / more preferred TF binding; most listed sequences are background and not binding sites
Conditions: protein concentration: 200 nM; construct: GST-full length
How it was run: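 Full-length yeast transcription factors or their DNA-binding domains, GST-tagged and expressed with PURExpress, were applied at about 100-200 nM to universal all-10-mer Agilent arrays. These arrays had been made double-stranded by primer extension on fresh or once-stripped slides. Detection used fluorescent anti-GST, normalisation used masliner, and E-scores for ungapped eight-base words pooled with reverse complements came from the Universal PBM Analysis Suite.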

Row | Sequence | PBM E-score
1 | AAGACTGT | -0.0946
2 | ACGAAACC | 0.33
3 | CAGGTCGA | -0.145
4 | GCACCGAA | 0.148
5 | AATTCGAG | 0.0674
6 | CCATTTAA | -0.113
7 | AGAAAAAA | -0.118
8 | ATCCTTGG | -0.152
9 | CACTCAGC | -0.203
10 | CAGGGTTC | -0.0501
11 | CATTGGGG | -0.281
12 | AAAGCGAA | 0.133
13 | ATCCATTC | 0.192
14 | AGTCTAGG | -0.141
15 | AGGGGCAA | -0.111
16 | AGTGTTGA | -0.109
17 | AAGTGATG | -0.116
18 | TATTTAAA | 0.132
19 | GTAAGACA | 0.0839
20 | AATTGCAC | -0.0277
21 | AGTTCCAA | -0.0699
22 | GGTATTAC | 0.122
23 | GGGACCGA | 0.269
24 | CGTACTGC | 0.291
25 | AATACCCA | -0.0503

Row | Sequence | PBM E-score
26 | AAACAAGG | -0.244
27 | AGCGGTGA | -0.0725
28 | AGTAATAA | 0.00504
29 | ACTAAGAG | -0.0045
30 | AGGCCGTA | 0.384
31 | CGCATGCA | 0.0885
32 | AGAAAGAC | -0.0342
33 | GAAATGCC | -0.0167
34 | GATTTCGA | 0.00622
35 | CAGAACAG | -0.127
36 | CCCGGGAG | -0.331
37 | CAGTACAC | -0.00959
38 | CTACATCC | -0.171
39 | CATAAGTC | -0.0161
40 | AATAGTGC | -0.00076
41 | GGACGTCC | -0.103
42 | CCCCAACC | -0.176
43 | GACGTGCC | -0.161
44 | TCCCTGCA | -0.111
45 | ATGGCCTA | -0.0123
46 | AGGGGGTC | -0.228
47 | GTTGAGAA | -0.24
48 | ATTAACGG | 0.226
49 | GTGTCAGA | -0.0914
50 | ACTGCTCT | -0.148

Row | Sequence | PBM E-score
51 | GTACTGCA | 0.0571
52 | GACCAATC | -0.144
53 | AAGAGGAT | -0.177
54 | ACAAGATC | -0.0608
55 | CTATGCAG | -0.0753
56 | AAAATTGT | -0.0489
57 | AGGAACAC | -0.0177
58 | AGTCATTC | -0.116
59 | ATGCGACG | 0.294
60 | CTTACGAA | 0.391
61 | TACTGGCA | -0.17
62 | GAGGGCAA | -0.0698
63 | TACTCGGA | 0.212
64 | CACCTAGA | -0.055
65 | AACCTACA | -0.0586
66 | CGATGGAA | 0.0222
67 | AACACTGG | -0.0431
68 | ACTCTTCC | -0.15
69 | ATTCATCA | -0.0422
70 | ACAGCCAG | -0.019
71 | GAGTAGAA | 0.0393
72 | GAAGACCA | -0.0642
73 | ATAAGAGC | 0.111
74 | CGGAAGGC | -0.306
75 | ACGCGGCC | -0.0158

Row | Sequence | PBM E-score
76 | AGGTAGTA | -0.0441
77 | CAGCCCGA | -0.153
78 | ACGCAGCG | 0.0255
79 | GTATGTCA | 0.0795
80 | GAGCAGCC | -0.0218
81 | GCGCACCA | 0.0385
82 | CCTGCTAA | -0.0845
83 | AGCCGTAA | 0.153
84 | TCTAAACA | 0.00509
85 | ATAAAGTG | 0.052
86 | CCTAGGAA | -0.188
87 | GATGTCTA | 0.0976
88 | CTGAAGCC | -0.103
89 | AATGGAAT | -0.205
90 | CCTTTACG | 0.329
91 | CTGACTCA | -0.265
92 | CAGTACGC | 0.06
93 | ACTAGATA | 0.114
94 | CAATGTGG | -0.15
95 | ATAGTTTC | -0.0352
96 | GGCGAGAC | -0.0399
97 | ATTTTGTC | -0.0711
98 | AAGTTATT | 0.0823
99 | CAGTCGAA | -0.0374
100 | GATCTGAA | -0.12

Row | Sequence | PBM E-score
101 | GGCCATCA | -0.203
102 | ACCTTCAT | -0.11
103 | ACGCTAAA | 0.0551
104 | AATACTCC | -0.103
105 | CAGTGCCC | -0.043
106 | GAACTAAC | 0.0769
107 | CGTCGGGC | -0.107
108 | CTTATCCC | -0.0938
109 | CCTTTCCA | -0.141
110 | CGATAACC | 0.219
111 | GCCTCTAA | -0.156
112 | GGTCAGAC | -0.348
113 | ATCCATCA | -0.0518
114 | GACCTTTA | 0.074
115 | GCACGGGA | 0.0895
116 | CTGCCCGC | -0.1
117 | CGGTTATA | 0.285
118 | GAAGCGTA | 0.214
119 | ACTGAGGC | -0.15
120 | AACTGGAT | -0.0918
121 | AATCTATC | -0.129
122 | ATGCAAGA | -0.229
123 | ACCAGGCG | -0.16
124 | GAAGTCTA | -0.162
125 | AGGATAAT | 0.0945

Row | Sequence | PBM E-score
126 | AGCATCGA | -0.0129
127 | AACATCTT | -0.0882
128 | TGTGCGAA | 0.127
129 | CCATTAAG | -0.0901
130 | AAAACATT | -0.0377
131 | GCAATGAC | -0.141
132 | CGGTAGTC | -0.0257
133 | TCCCACAA | -0.17
134 | TAATAAGA | -0.0203
135 | CTTATTCA | -0.134
136 | ATTAAAAT | -0.133
137 | ATCCCTGG | -0.246
138 | CGGGACTC | -0.0155
139 | AGAAATAT | 0.112
140 | CGGAGTAA | 0.0339
141 | GACGTGGC | -0.228
142 | CGTCGAGA | 0.167
143 | AATAACTA | 0.0409
144 | AAACACGC | 0.00946
145 | GACCTCTA | -0.0204
146 | CAAGTAGG | -0.203
147 | GACGATCA | -0.0466
148 | GTCATAAA | -0.00245
149 | ACGTCGCG | 0.162
150 | GCTTTGGA | 0.0385

Row | Sequence | PBM E-score
151 | AACATCGC | -0.171
152 | AATTGGAT | -0.154
153 | CAACTCCA | -0.306
154 | GATCAACA | -0.0756
155 | CGTGAGAC | -0.0669
156 | CACGAGCA | 0.0712
157 | AAACCTGG | -0.231
158 | TCCGCAGA | -0.0845
159 | ATCCGCGC | 0.0953
160 | AATCTCGG | 0.129
161 | CATACATG | 0.0482
162 | CTCCAAGC | -0.141
163 | GGGCGCGA | 0.155
164 | AGAGGAAG | -0.167
165 | CAGCCTCC | -0.272
166 | ACTCGCAA | 0.205
167 | ATGTTACG | 0.223
168 | CCCTCAGC | -0.0277
169 | AAATCACG | 0.123
170 | CCCGCGGC | 0.00541
171 | GGCCTCAA | -0.111
172 | AGCCCCGG | 0.00976
